According to publication PMC3229578:
Results are given in words; binding and its absence hold for the method and conditions named. For some assays here: Binding seen in cells or lysates may run through a third protein. Some binding calls cover weakened binding; strength is not graded here. For some assays here: Tags and fused reporters may be left off the sequences shown. One block for each binder: values may come before it.

Sequences of proteins named here, by UniProt entry; tags and fusion partners are left off. A change or cut given only in a name is not applied to a line headed by its entry. Residues count along the entry.
UniProt Q9WUI0: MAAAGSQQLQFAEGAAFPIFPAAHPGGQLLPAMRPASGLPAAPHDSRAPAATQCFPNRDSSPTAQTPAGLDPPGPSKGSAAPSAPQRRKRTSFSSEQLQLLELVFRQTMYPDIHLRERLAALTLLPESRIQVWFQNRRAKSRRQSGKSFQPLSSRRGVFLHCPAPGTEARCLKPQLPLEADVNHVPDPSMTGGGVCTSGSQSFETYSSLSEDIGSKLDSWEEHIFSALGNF
GST-Mixl1 amino terminal Proline rich domain (aa 1–86): residues 1-86 of Q9WUI0
GST-Mixl1 aa 86–231: residues 86-231 of Q9WUI0
GST-Mixl1 aa 145–231: residues 145-231 of Q9WUI0

What was measured:
GST mT (mouse) = target: T1, GST mT (mouse) (UniProt P20293); experiment: pull-down; 293T cells co-transfected with pDEST27 (GST) and pMT2-SM HA plasmids; whole cell lysates in ELB150 buffer on glutathione agarose, 4°C; Western blot with anti-HA
T1 sequence: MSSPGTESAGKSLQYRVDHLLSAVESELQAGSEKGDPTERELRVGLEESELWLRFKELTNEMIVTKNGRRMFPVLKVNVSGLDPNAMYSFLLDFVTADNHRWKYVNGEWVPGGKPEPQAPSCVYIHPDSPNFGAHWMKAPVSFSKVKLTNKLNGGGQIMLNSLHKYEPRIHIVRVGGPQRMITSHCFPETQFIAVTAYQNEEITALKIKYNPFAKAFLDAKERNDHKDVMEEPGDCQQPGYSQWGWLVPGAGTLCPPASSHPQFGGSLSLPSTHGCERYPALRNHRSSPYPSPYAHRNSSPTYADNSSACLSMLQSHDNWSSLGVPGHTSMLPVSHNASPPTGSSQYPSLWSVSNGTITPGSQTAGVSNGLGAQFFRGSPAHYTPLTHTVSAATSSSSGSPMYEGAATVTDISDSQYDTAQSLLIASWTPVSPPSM

[1] = target: GST mMixl1 (mammalian) (mouse) (UniProt Q9WUI0); experiment: as above
[2] = target: GST-Mixl1 aa 145–231 (mouse) (UniProt Q9WUI0); experiment: as above
[3] = target: GST-Mixl1 aa 86–231 (mouse) (UniProt Q9WUI0); experiment: as above
[4] = target: GST-Mixl1 amino terminal Proline rich domain (aa 1–86) (mouse) (UniProt Q9WUI0); experiment: as above
FLAG mMixl1 (mouse) = FLAG mMixl1 (mouse) (UniProt Q9WUI0); experiment: co-IP; 293T cells co-transfected with FLAG and HA expression plasmids; whole cell lysates in ELB150 buffer; IP with 5 µg anti-FLAG M2 or isotype control antibody, 4°C, protein G beads; Western blot with anti-HA (or anti-T N19)
[5] = target: endogenous Mixl1 (mouse (endogenous in day 4 embryoid bodies from mouse ESCs)) (UniProt Q9WUI0); experiment: co-IP; nuclear proteins of day 4 differentiated Mixl1 GFP/w ESCs; IP with anti-Mixl1 6G2 or rat isotype control antibody; Western blot with anti-Mixl1 2D10 or anti-Brachyury N19
GST-xMix.1 (Xenopus) = target: T2, GST-xMix.1 (Xenopus) (UniProt P21711); experiment: pull-down; bacterially made, purified His-Brachyury derivatives incubated with GST-Mixl1 derivatives or GST alone on glutathione beads in ELB150 buffer, 4°C, 3 h; washed in ELB300 (0.3 M KCl); Western blot with anti-T N19; both purified
T2 sequence: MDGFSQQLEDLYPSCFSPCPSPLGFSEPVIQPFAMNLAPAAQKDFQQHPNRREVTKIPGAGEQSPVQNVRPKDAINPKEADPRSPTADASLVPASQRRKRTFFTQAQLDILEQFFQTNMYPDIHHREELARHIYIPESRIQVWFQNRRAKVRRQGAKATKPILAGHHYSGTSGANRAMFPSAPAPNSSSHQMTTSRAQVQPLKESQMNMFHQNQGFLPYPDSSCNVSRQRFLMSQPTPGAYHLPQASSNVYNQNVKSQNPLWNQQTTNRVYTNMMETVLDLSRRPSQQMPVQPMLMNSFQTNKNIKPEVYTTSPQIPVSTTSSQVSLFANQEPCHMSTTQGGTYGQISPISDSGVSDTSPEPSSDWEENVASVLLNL

binding (GST mT (mouse)): no binding
B1: HA-mOct6 (protein, UniProt P21952 1-449)
chain: MATTAQYLPRGPGGGAGGTGPLMHPDAAAAAAAAAERLHAGAAYREVQKLMHHEWLGAGAGHPVGLAHPQWLPTGGGGGGDWAGGPHLEHGKAGGGGTGRADDGGGGGGFHARLVHQGAAHAGAAWAQGGTAHHLGPAMSPSPGAGGGHQPQPLGLYAQAAYPGGGGGGLAGMLAAGGGGAGPGLHHALHEDGHEAQLEPSPPPHLGAHGHAHGHAHAGGLHAAAAHLHPGAGGGGSSVGEHSDEDAPSSDDLEQFAKQFKQRRIKLGFTQADVGLALGTLYGNVFSQTTICRFEALQLSFKNMCKLKPLLNKWLEETDSSSGSPTNLDKIAAQGRKRKKRTSIEVGVKGALESHFLKCPKPSAHEITGLADSLQLEKEVVRVWFCNRRQKEKRMTPAAGAGHPPMDDVYAPGELGPGGGSASPPSAPPPPPPAALHHHHHHTLPGSVQ

binding [1]: binds
binding [2]: binds
binding [3]: binds
binding [4]: binds weakly
binding (FLAG mMixl1 (mouse)): binds
B2: HA mT (protein, UniProt P20293 1-436)
chain: MSSPGTESAGKSLQYRVDHLLSAVESELQAGSEKGDPTERELRVGLEESELWLRFKELTNEMIVTKNGRRMFPVLKVNVSGLDPNAMYSFLLDFVTADNHRWKYVNGEWVPGGKPEPQAPSCVYIHPDSPNFGAHWMKAPVSFSKVKLTNKLNGGGQIMLNSLHKYEPRIHIVRVGGPQRMITSHCFPETQFIAVTAYQNEEITALKIKYNPFAKAFLDAKERNDHKDVMEEPGDCQQPGYSQWGWLVPGAGTLCPPASSHPQFGGSLSLPSTHGCERYPALRNHRSSPYPSPYAHRNSSPTYADNSSACLSMLQSHDNWSSLGVPGHTSMLPVSHNASPPTGSSQYPSLWSVSNGTITPGSQTAGVSNGLGAQFFRGSPAHYTPLTHTVSAATSSSSGSPMYEGAATVTDISDSQYDTAQSLLIASWTPVSPPSM

binding [5]: binds
B3: endogenous Brachyury (protein, UniProt P20293 1-436)
chain: MSSPGTESAGKSLQYRVDHLLSAVESELQAGSEKGDPTERELRVGLEESELWLRFKELTNEMIVTKNGRRMFPVLKVNVSGLDPNAMYSFLLDFVTADNHRWKYVNGEWVPGGKPEPQAPSCVYIHPDSPNFGAHWMKAPVSFSKVKLTNKLNGGGQIMLNSLHKYEPRIHIVRVGGPQRMITSHCFPETQFIAVTAYQNEEITALKIKYNPFAKAFLDAKERNDHKDVMEEPGDCQQPGYSQWGWLVPGAGTLCPPASSHPQFGGSLSLPSTHGCERYPALRNHRSSPYPSPYAHRNSSPTYADNSSACLSMLQSHDNWSSLGVPGHTSMLPVSHNASPPTGSSQYPSLWSVSNGTITPGSQTAGVSNGLGAQFFRGSPAHYTPLTHTVSAATSSSSGSPMYEGAATVTDISDSQYDTAQSLLIASWTPVSPPSM

binding (GST-xMix.1 (Xenopus)): binds
B4: His-Xbra (protein, UniProt P24781 1-432)
chain: MSATESCAKNVQYRVDHLLSAVENELQAGSEKGDPTEKELKVSLEERDLWTRFKELTNEMIVTKNGRRMFPVLKVSMSGLDPNAMYTVLLDFVAADNHRWKYVNGEWVPGGKPEPQAPSCVYIHPDSPNFGAHWMKDPVSFSKVKLTNKMNGGGQIMLNSLHKYEPRIHIVRVGGTQRMITSHSFPETQFIAVTAYQNEEITALKIKHNPFAKAFLDAKERNDYKDILDEGIDSQHSNFSQLGTWLIPNGGSLCSPNPHTQFGAPLSLSSPHGCERYSSLRNHRSAPYPSPYTHRNNSPNNLADNSSACLSMLQSHDNWSTLQMPAHTGMLPMSHSTGTPPPSSQYPSLWSVSNSAITPVSQSGGITNGISSQYLLGSTPHYSSLSHAVPSPSTGSPLYEHGAQTEIAENQYDVTAHSRLSSTWTPVAPPSV
